Data: the supplement of paper PMC11417369
The list shows a part of the results.

These sequences were tested on PfHDP1 homeodomain (GST-tagged) (assay: gcPBM binding intensity (ln(normalized median fluorescence intensity)); higher = stronger DNA binding).
Method in brief: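 An Agilent 4 × 180k array carrying primer-extended double-stranded 36-bp intergenic genomic probes and negative controls received GST-tagged P. falciparum DNA-binding domains expressed in E. coli, about 25 μg on average, for 1 h. The binding buffer contained 1× PBS, 1% milk, 0.2 mg/ml BSA, 0.5% salmon testes DNA and 0.03% Triton X-100. Binding intensity is the top Masliner-normalised natural-log median intensity across replicate spots of either probe orientation, read after Alexa488 anti-GST antibody staining and a 488 nm scan.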

Question: With “TGTATAAGTATTAATACACACACAAAATAATAAAAA [CACACA_site9156]” as the sequence, how does the “gcPBM binding intensity (ln)” value read?
Answer: The value was 7.05.

Question: How did the “gcPBM binding intensity (ln)” value turn out when “TACTTACATTATTTATTTATATAAAAAGTTAATTAT [XGTACX_negctrl_site433]” was run?
Answer: Its value is 6.31.

Question: How did the “gcPBM binding intensity (ln)” value turn out when “TTCCAAACCTCATTATGGAAAATAAAAAAATAAAAA [XGTACX_negctrl_site17]” was run?
Answer: Its value is 6.42.

Question: For “TTCCAAAAAGTTATTACACACATATGTGCACATATA [CACACA_site6465]”, which “gcPBM binding intensity (ln)” value is on record?
Answer: Its value is 11.2.

Question: For “AGAATATTATATTATGCATGCATATAGAAAAATATA [TGCATGCA_site302]”, which “gcPBM binding intensity (ln)” value is on record?
Answer: The value was 6.81.

Question: How did the “gcPBM binding intensity (ln)” value turn out when “ATAAAATATTTTTGAACATGCAGGTAAAAAATAAAA [TGCATGCA_site1019]” was run?
Answer: Its value is 6.55.

Question: Which “gcPBM binding intensity (ln)” value does the source give for “TTTATTAGTAATTATACACACATATAAAATGAATAA [CACACA_site6754]” here?
Answer: The value was 6.34.

Question: For “TATATTTATAGGTACACACACACATATAAATAAATA [CACACA_site6345]”, which “gcPBM binding intensity (ln)” value is on record?
Answer: The value was 6.78.

Question: “AAAAAAAAAAAAAACACACACATATATATATATATA [CACACA_site1891]” was tested. Which “gcPBM binding intensity (ln)” value did it give?
Answer: The value was 9.26.

Question: “ATAAAATTATATTTTGCATGCAGGCCTTTTTCTTAA [TGCATGCA_site1030]” was tested. Which “gcPBM binding intensity (ln)” value did it give?
Answer: Its value is 6.93.

Question: “AATTTTTTATATGTCACACATTTATTATTATTATTA [CACACA_site4198]” was tested. Which “gcPBM binding intensity (ln)” value did it give?
Answer: The value was 6.56.

Question: “ACTTATAAAAACATATACCCCATCGCATTTTTTCCA [XGTACX_negctrl_site177]” was tested. Which “gcPBM binding intensity (ln)” value did it give?
Answer: Its value is 6.69.

Question: For “TGTAATATAAAATTTTGTACTCAAAAATTTATATAT [XGTACX_site3252]”, which “gcPBM binding intensity (ln)” value is on record?
Answer: Its value is 5.97.

Question: “TTTTTTTTTCTTTTCAAACACACAATTGGTATATAT [CACACA_site3321]” was tested. Which “gcPBM binding intensity (ln)” value did it give?
Answer: The value was 6.68.

Question: Which “gcPBM binding intensity (ln)” value does the source give for “ATATATTTTTTGAATACACACATATTATAGGTAATA [CACACA_site6709]” here?
Answer: Its value is 6.53.

Question: How did the “gcPBM binding intensity (ln)” value turn out when “TGACTGTAGATATTTTGTACATAACCTAATATATAT [XGTACX_site970]” was run?
Answer: Its value is 6.37.

Question: How did the “gcPBM binding intensity (ln)” value turn out when “CTATTTATTTTTGATGCATGCCAAATATAGAAAAAA [TGCATGCA_site368]” was run?
Answer: The value was 6.37.

Question: Which “gcPBM binding intensity (ln)” value does the source give for “CGTATAAATATACGTGCATGTAACTTTTTCTATATT [TGCATGCA_site981]” here?
Answer: Its value is 9.66.

Question: How did the “gcPBM binding intensity (ln)” value turn out when “TAGTAGTTATCACTAACATGCAATAATATTATTTAA [TGCATGCA_site161]” was run?
Answer: Its value is 6.69.

Question: “ATAACATATATATATACACACACATATATATATGAA [CACACA_site7983]” was tested. Which “gcPBM binding intensity (ln)” value did it give?
Answer: Its value is 6.85.

Question: “TTTTTTTTTTTTTTTTGTACACATAATATGAATAAT [XGTACX_site2661]” was tested. Which “gcPBM binding intensity (ln)” value did it give?
Answer: The value was 6.45.

Question: How did the “gcPBM binding intensity (ln)” value turn out when “TTATGTACAATTTCTTCTTTCTTTTTTCCTAAAGAC [CACACA_negctrl_site1193]” was run?
Answer: Its value is 6.38.

Question: “ATAATATAATACGAAGGTACACATTTTCTTAATATA [XGTACX_site7947]” was tested. Which “gcPBM binding intensity (ln)” value did it give?
Answer: Its value is 6.21.

Question: With “TATTACTATGTTATAACTTTTTTAAACGTGATCATA [TGCATGCA_negctrl_site128]” as the sequence, how does the “gcPBM binding intensity (ln)” value read?
Answer: The value was 5.97.
